The record followed here is article PMC6919601, “Identification of Plasmodium dipeptidyl aminopeptidase allosteric inhibitors by high throughput screening” (PLoS ONE, 2019).

Each structure is given as a SMILES string. The whole screen tested about 110,000 compounds, of which about 230 (0.21%) showed an effect of 50% or more. The list shows a part of the results.
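Further: 30 min substrate incubation versus DMSO and 10 µM JCP410 controls.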

Sequence of DPAP1 (Q8IIJ9 whole entry, looked up): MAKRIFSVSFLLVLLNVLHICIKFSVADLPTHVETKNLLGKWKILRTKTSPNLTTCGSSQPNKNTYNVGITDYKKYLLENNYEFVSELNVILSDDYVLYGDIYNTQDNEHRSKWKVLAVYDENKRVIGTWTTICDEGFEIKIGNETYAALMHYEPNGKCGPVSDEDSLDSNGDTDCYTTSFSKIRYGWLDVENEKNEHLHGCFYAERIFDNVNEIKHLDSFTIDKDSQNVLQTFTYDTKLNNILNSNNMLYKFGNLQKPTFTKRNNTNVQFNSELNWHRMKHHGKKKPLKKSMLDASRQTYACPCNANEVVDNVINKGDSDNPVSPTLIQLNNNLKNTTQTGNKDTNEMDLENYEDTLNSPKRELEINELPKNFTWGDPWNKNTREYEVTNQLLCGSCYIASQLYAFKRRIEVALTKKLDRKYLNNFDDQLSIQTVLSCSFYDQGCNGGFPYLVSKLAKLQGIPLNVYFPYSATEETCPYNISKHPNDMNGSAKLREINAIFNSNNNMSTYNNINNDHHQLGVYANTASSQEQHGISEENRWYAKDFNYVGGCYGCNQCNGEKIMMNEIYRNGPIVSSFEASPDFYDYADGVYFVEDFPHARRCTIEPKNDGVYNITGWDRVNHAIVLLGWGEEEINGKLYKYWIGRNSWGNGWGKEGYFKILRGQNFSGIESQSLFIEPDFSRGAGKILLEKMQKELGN

This assay addresses DPAP1 (Plasmodium falciparum, UniProt Q8IIJ9). The assay is described as follows: primary screen, percent inhibition; read by cleavage of a fluorogenic dipeptide substrate; higher = more effect of the substance. Also on record: species or system P. falciparum D10 trophozoite lysates; single well.
As to `COc1ccc(CO[C@@H]2O[C@H](CO)[C@@H](O)[C@H](O)[C@H]2NC(C)=O)cc1OC`, the “% Inhibition @ 10 uM” value is recorded as -0.0235%.
`CNc1oc(/C=C/c2ccccc2OC)nc1C#N`: the “% Inhibition @ 10 uM” value worked out at 2.54%.
Then `COC(=O)/C(=C\C(C#N)=C/N(C)C)C(C)=O`, with 7.24%; and `Cn1c2c(c(=O)n(C)c1=O)CN(CCc1ccco1)CN2`, with -1.08%.
As for `O=S(=O)(NCc1ccc(Cl)cc1)c1ccc2c(c1)OCCO2`, the “% Inhibition @ 10 uM” value is given as -4.69%.
As for `O=C(CCc1ccc(S(=O)(=O)NCc2ccccc2)cc1)N1CCCCCC1`, the “% Inhibition @ 10 uM” value worked out at 3.53%.
Then `COc1ccc2nc(N3CCC(C(=O)NCC(C)CN4CCC(C)CC4)CC3)sc2c1` (centres unmarked), with 4.79%; and `CC(=O)N1N=C(c2ccc(Br)cc2)CC1c1ccco1` (centres unmarked), with -6.27%.
With `Cc1ccc(-c2onc(C)c2C)cc1S(=O)(=O)N1CCc2ccccc2C1` the figure was -6.26%; with `N#Cc1cc2c(nc1SCC(=O)NCc1ccc3c(c1)OCO3)CCCCC2`, -3.16%; with `COc1ccc(CCNC(=O)CN(C)S(=O)(=O)c2cccc3nsnc23)cc1OC`, 0.317%.
Then `CCC(C)NC(=O)C1CCCN(c2nnc(C)c3c(C)n(-c4ccc(Cl)cc4)nc23)C1` (centres unmarked), with 5.2%.
For `Cc1nc2cc(-c3ccccc3)nn2c(C)c1CC(=O)NCCN1CCOCC1`, the “% Inhibition @ 10 uM” value was -2.67%.
With `Cn1c(=O)c2nc(NCCN3CCOCC3)[nH]c2n(C)c1=O`, the “% Inhibition @ 10 uM” value is reported as 3.24%.
With `CCOC(=O)C1=C(C)OC(N)=C(C#N)C1c1cccc(Cl)c1` (centres unmarked), the “% Inhibition @ 10 uM” value is -5.17%.
With `COc1ccc2[nH]c3c(=O)n(Cc4ccc(C(=O)NCC5CCCO5)cc4)c(=S)[nH]c3c2c1` (centres unmarked), the “% Inhibition @ 10 uM” value is -7.65%.
As for `CSc1nc2ccccc2c(=O)n1Cc1cccc(Cl)c1`, the “% Inhibition @ 10 uM” value is 2.78%.
Then `CN(Cc1ccccc1)C(=O)C1CCN(S(=O)(=O)c2cccc3nonc23)CC1`, with -0.128%.
With `Fc1cccc(NCc2cccc(Oc3ccccc3)c2)c1` the figure was -3.27%; with `COc1c2nc(C)cc(C)c2cc2c(C)c(C)[nH]c12`, -4.24%; with `CN(C1=C(Cl)C(=O)N(c2ccccc2)C1=O)c1ccccc1`, -3.19%.
As to `COc1ccc(CN(C)C2CCN(C)CC2)c(C)c1C`, the “% Inhibition @ 10 uM” value is 3.8%.
`CCC(CO)NC(=O)Nc1ccc2ccccc2c1` (centres unmarked): the “% Inhibition @ 10 uM” value is -1.07%.
With `CCCc1nc(O)c(C#N)c2c1COC(C)(C)C2` the figure was -1.2%; with `O=C(NCC(c1cccnc1)N1CCOCC1)c1cccs1` (centres unmarked), 4.51%; with `CCC(C(=O)NCc1cccc(Cl)c1)n1nc(C)c2c(C)n(-c3ccccc3)nc2c1=O` (centres unmarked), -8.35%.
Consider `CC(C)(C)NS(=O)(=O)c1cccc(C(F)(F)F)c1`, for which the “% Inhibition @ 10 uM” value is given as 2.38%.
Then `CCOc1c(Cl)cc(C(=O)N(Cc2ccccc2F)C2CCS(=O)(=O)C2)cc1Cl` (centres unmarked), with -3.12%; and `Cc1cc(C(=O)NCc2ccccc2)no1`, with -0.591%; and `Cc1ccc(-c2nc3scc(CCNC(=O)c4ccc(C)c(C)c4)n3n2)cc1`, with 0.483%.
`Cc1ccc(S(=O)(=O)NCc2ccc(C(=O)NCCc3ccc(Cl)cc3)cc2)cc1`: the “% Inhibition @ 10 uM” value is reported as -3.58%.
With `CCC(C(=O)O)n1cc(C=O)c2ccccc21` (centres unmarked) the figure was 3.24%.
With `CC1=C(C(=O)OCC2CCCO2)C(c2ccccc2F)NC(=O)N1` (centres unmarked) the figure was -1.56%; with `O=C(NCc1ccccn1)c1cc(O)nc2ccc(Br)cc12`, -1.79%; with `CCOC(=O)C1CCN(Cc2cc(C)ccc2C)CC1`, -0.192%.
Then `N#Cc1ccc(NC(=O)Cc2ccccc2)cc1`, with -3.95%.
With `CCOc1ccc(CN2CCN(c3ccc([N+](=O)[O-])cc3)CC2)cc1`, the “% Inhibition @ 10 uM” value was -5.41%.
With `O=C(CCc1nnc2ccc(N3CCCC3)nn12)NCc1ccc(CN2CCOCC2)o1` the figure was -7.74%; with `Cc1cc(C)nc(/N=C(\N)Nc2ccccc2C(F)(F)F)n1`, -6.7%; with `Oc1cccc(CN2CCN(c3ccccc3F)CC2)c1`, 3.8%.
Consider `Cc1cccc2cc(C(=O)CS(=O)(=O)c3ccc(C(C)(C)C)cc3)c(=O)oc12`, for which the “% Inhibition @ 10 uM” value is 0.775%.
Then `CCN(CC)C(=O)Cn1cc(SCC(N)=O)c2ccccc21`, with -5.23%; and `O=C(O)COc1cccc(NC(=O)c2ccccc2)c1`, with -1.02%.
In the case of `CS(=O)(=O)n1nc(-c2cccnc2)nc1NCc1cccs1`, the “% Inhibition @ 10 uM” value is recorded as -4.98%.
On to `S=C1NCN(CCc2ccccc2)CN1`, for which the “% Inhibition @ 10 uM” value is recorded as -7.56%.
With `C=CCNC(=S)NC(c1ccccc1)(c1ccccc1)c1ccccc1` the figure was 1.29%.
With `CC1CCc2c(sc3nnn(Cc4ccc(C(=O)OC(C)C)cc4)c(=O)c23)C1` (centres unmarked) the figure was -4.85%; with `CCN(CC)CCSc1nc2ccccc2[nH]1`, -3.77%; with `COc1ccc(-c2noc(CN(C(=O)c3ccccc3)C(C)C)n2)cc1`, 0.809%.
For `Cc1ccc(-c2nnn(CC(=O)Nc3sc4c(c3C#N)CCC4)n2)cc1`, the “% Inhibition @ 10 uM” value is recorded as -1.85%.
Then `CC[C@H](NC(=O)[C@H](Cc1nccs1)/N=C(\C)NS(=O)(=O)c1ccccc1)C(=O)c1nc2ccccc2o1`, with -6.56%.
On to `COc1cc(CN(C(=O)c2cccc(C)c2)C2CCS(=O)(=O)C2)cc(OC)c1OC` (centres unmarked), for which the “% Inhibition @ 10 uM” value was -5.08%.
Then `CC/N=C1/SC(CC(=O)Nc2ccccc2C(F)(F)F)C(=O)N1CC` (centres unmarked), with -5.46%; and `Cc1ccsc1CN1CCN(CCO)CC1`, with -0.856%.
Then `CSCCOC(=O)C1=C(C)NC(=O)CC1c1ccccc1C` (centres unmarked), with -6.23%; and `CCCS(=O)(=O)N1CCC(C(=O)NCCN(C)Cc2ccccc2)CC1`, with 4.81%.
Then `COc1ccccc1-n1cnc2sc3c(c2c1=O)CCCC3`, with 1.96%.
Regarding `Fc1ccc(-c2nnc3sc(-c4cccnc4)nn23)cc1`, the “% Inhibition @ 10 uM” value turned out to be 2.89%.
For `COc1ccc(C(=O)NCCc2c[nH]c3ccccc23)cc1`, the “% Inhibition @ 10 uM” value is given as -1.76%.
With `O=C(Nc1ccc(S(=O)(=O)N2CCCCCC2)cc1)c1ccccc1Cl` the figure was -0.69%.
With `CCCCN(CC)C(=O)Cn1nc(CC)n2c(cc3occc32)c1=O`, the “% Inhibition @ 10 uM” value is given as 3%.
With `Cc1ccc(C2CC(C(F)(F)F)n3nc(C(N)=O)cc3N2)cc1` (centres unmarked) the figure was -2.8%; with `Cc1ccc(S(=O)(=O)CCN2CCC(O)(c3ccccc3)CC2)cc1`, 0.778%; with `Cc1ccc2nc(NC(=O)CN(C)S(=O)(=O)c3cccc4nsnc34)sc2c1`, -1.43%.
On to `Cc1ccc(-n2nc(C)c3c2OC(N)=C(C#N)C3c2ccc3c(c2Cl)OCO3)cc1` (centres unmarked), for which the “% Inhibition @ 10 uM” value is -5.48%.
Turning to `COc1ccc(N(CC(=O)Nc2cc(C)cc(C)c2)S(C)(=O)=O)c(OC)c1`, the “% Inhibition @ 10 uM” value was determined as 0.189%.
Then `CC1(C)Cc2nc3ccccc3c(NCc3ccc(Cl)cc3)c2C(O)C1` (centres unmarked), with -5.47%; and `O=C(c1cc2ccccc2oc1=O)N1CCc2ccccc21`, with 0.219%.
With `CCc1ccccc1N(CC(=O)NC)S(=O)(=O)c1ccc(C)cc1` the figure was -5.19%.
Then `O=C(C1CC(c2ccc(F)cc2)=NO1)N1CCC(Cc2ccccc2)CC1` (centres unmarked), with 2.85%.
On to `Cc1ccc(CNC(=O)c2ccc(CS(=O)c3ccccc3C)o2)cc1` (centres unmarked), for which the “% Inhibition @ 10 uM” value is reported as -1.28%.
Then `CC(NC(=O)COc1ccc(Cl)cc1Cl)c1ccccc1` (centres unmarked), with 2.62%; and `O=C(NCCc1ccccc1)C1CCCN(S(=O)(=O)N2CCC3(CC2)OCCO3)C1` (centres unmarked), with -2.56%.
Then `CC1CCN(S(=O)(=O)c2ccc(NC(=O)C(C)Oc3ccccc3)cc2)CC1` (centres unmarked), with 0.13%; and `CCCN1C(=O)/C(=C/c2cc(C)n(C)c2C)S/C1=N/c1ccc(OC)cc1`, with 4.11%.
`CCOC(=O)c1c(-c2ccc([N+](=O)[O-])cc2)nc2ccc3ccccc3c2c1C`: the “% Inhibition @ 10 uM” value is on record as 4.12%.
With `OCC1CCCCN1Cc1ccccc1Br` (centres unmarked) the figure was -6.12%.
Then `CC(C)NCC(O)Cn1c2c(c3ccccc31)CCc1c-2cnn1-c1ccccc1` (centres unmarked), with 1.7%; and `CCOC(=O)c1cc(S(=O)(=O)N(C)C2CCCC(C)C2C)cn1C` (centres unmarked), with -1.06%.
Then `O=C(NC12CCCC1C1CCC2C1)NC12CCCC1C1CCC2C1` (centres unmarked), with -0.712%; and `O=C(COc1ccccc1)Nc1ccc2ccccc2c1`, with -1.17%; and `COc1ccc(CNC(=O)CN(c2ccccc2Cl)S(=O)(=O)c2ccc(C)cc2)cc1`, with -4.31%.
In the case of `CCCCOC(=O)Nc1ccc(C(C)C)cc1`, the “% Inhibition @ 10 uM” value amounted to 4.57%.
As to `Cc1ccc(C2SCC(=O)Nc3c2c(O)nn3C2CCCCC2)cc1` (centres unmarked), the “% Inhibition @ 10 uM” value was -7.86%.
Regarding `COC(=O)c1c(NC(=O)c2ccc3c(c2)CC(c2ccccc2)OC3=O)sc2c1CCC2` (centres unmarked), the “% Inhibition @ 10 uM” value worked out at 5.35%.
As to `O=C(OCc1cccc(COC(=O)c2ccc(Cl)cc2)n1)c1ccc(Cl)cc1`, the “% Inhibition @ 10 uM” value was found to be 4.93%.
In the case of `C=CCn1c(SCC(=O)Nc2ccccc2)nc2sc(CC)cc2c1=O`, the “% Inhibition @ 10 uM” value came to 3.46%.
With `COc1ccc(CNc2nc3ccccc3c3nc(-c4ccncc4)nn23)cc1` the figure was -0.692%; with `CCC(CC)C1C(C#N)=C(N)Oc2[nH]nc(C)c21` (centres unmarked), -1.98%.
In the case of `O=C(CCN1C(=O)C2C3C=CC(C3)C2C1=O)N(CCc1ccccc1)Cc1ccccc1` (centres unmarked), the “% Inhibition @ 10 uM” value stood at 1.26%.
With `NC1=NC(=O)CC(C(=O)NCc2ccccc2)S1` (centres unmarked) the figure was -6.6%.
Then `Cc1ccc(SCC2=NNC(=O)C2)cc1`, with 3.39%.
Turning to `Cn1c2ccccc2c2cnn(CC(=O)NCCN3CCOCC3)c(=O)c21`, the “% Inhibition @ 10 uM” value was -3.9%.
As to `c1coc(CNc2nc3ccccc3[nH]2)c1`, the “% Inhibition @ 10 uM” value is reported as -3.33%.
As for `O=C(CNC(=S)N(Cc1ccccc1)Cc1ccccc1F)NCc1ccco1`, the “% Inhibition @ 10 uM” value was 4.47%.
Consider `C=CCN1CCN(c2ccncc2S(=O)(=O)N2CCOCC2)CC1`, for which the “% Inhibition @ 10 uM” value is -2.74%.
Consider `CCCOC(=O)C1=C(C)N(CC)C(=O)NC1c1ccccc1Cl` (centres unmarked), for which the “% Inhibition @ 10 uM” value is reported as 0.997%.
Then `O=C1OC(c2ccc(-c3ccccc3)cc2)=N/C1=C\c1cccnc1`, with 1.97%; and `CCC(CC)N1CCN(c2ccc3nc(C(=O)NCc4ccc(C)cc4)ccc3n2)CC1`, with -5.13%; and `CC(=O)c1[nH]nnc1NC(=O)c1ccccc1`, with -5.9%.
Then `CN(Cc1ccccc1)C(=O)c1cc(-c2cccc(O)c2)on1`, with -1.84%.
